Results published in the supplement of paper PMC11098506.
± gives the standard deviation of the averaged measurements.

B1: VDAC2; numbered along this chain (parent)
chain: MATHGQTCARPMCIPPSYADLGKAARDIFNKGFGFGLVKLDVKTKSCSGVEFSTSGSSNTDTGKVTGTLETKYKWCEYGLTFTEKWNTDNTLGTEIAIEDQICQGLKLTFDTTFSPNTGKKSGKIKSSYKRECINLGCDVDFDFAGPAIHGSAVFGYEGWLAGYQMTFDSAKSKLTRNNFAVGYRTGDFQLHTNVNDGTEFGGSIYQKVCEDLDTSVNLAWTSGTNCTRFGIAAKYQLDPTASISAKVNNSSLIGVGYTQTLRPGVKLTLSALVDGKSINAGGHKVGLALELEA

Variants of: B1
Test: log2 fold difference of barcode abundance, FLAG-VDAC2-high vs FLAG-VDAC2-low sorted fraction (expression level) (log2 ratio); higher = higher VDAC2 variant expression
Conditions: Mcl1-/- Bax-/- Vdac2-/- MEF
Procedure: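 Deep mutational scan of human VDAC2 (FLAG-tagged) with single amino acid substitutions at positions Q165–F180, each barcoded clone expressed in Mcl1/Bax/Vdac2-deficient MEFs. Cells were stained with PE anti-FLAG and sorted into FLAG-high and FLAG-low fractions, and barcodes were counted by Illumina sequencing. The score is log2(CPM) in FLAG-high minus log2(CPM) in FLAG-low, per barcode; barcodes of the same variant are averaged.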

log2 fold difference of substitutions, site by site:
M166: C 2.5 ± 2.5, D -1.21 ± 2.6, E -2 ± 0.87, F 3.1 ± 2.6, G 1.74 ± 1.7, H 1.21 ± 2.2, I 1.49 ± 2, K -0.863 ± 1.4, L 0.98 ± 1.9, N 0.228 ± 1.7, P 1.02 ± 2.4, Q 0.582 ± 1.5, R -0.553 ± 1.4, S 0.274 ± 2.8, T 0.632 ± 2.8, V 1.92 ± 1.7, W -0.371 ± 1.8, Y 2.11 ± 1.4
T167: A 1 ± 2.2, C 1.88 ± 1.9, D 1.13 ± 2.6, E 1.87 ± 1.9, F 1.13 ± 1.6, G 0.61 ± 1.4, H 0.745 ± 2, I 2.18 ± 2.2, K 1.56 ± 1.9, L 1.02 ± 2, M 2.45 ± 1.7, N 1.72 ± 1.8, P -1.47 ± 2, Q 1.07 ± 1.2, R 1.61 ± 2.3, S 0.639 ± 1.4, V 2.6 ± 2.4, W -0.553 ± 1.6, Y 0.173 ± 1.2
F168: A 0.387 ± 1.7, C 0.548 ± 2.3, D -0.627 ± 2.2, E -1.4 ± 1.9, G -0.693 ± 1.8, H -0.292 ± 1.5, I 0.0357 ± 1.1, K 0.103 ± 2.9, L 0.676 ± 1.8, M -0.549 ± 0.4, N 0.373 ± 1.7, P -1.55 ± 0.89, Q -0.713 ± 2.4, R -0.242 ± 1.6, S 0.168 ± 2, T 0.163 ± 2.2, V 0.604 ± 1.4, W 0.947 ± 1.3, Y 1.15 ± 0.32
D169: A 0.667 ± 2.3, C 0.981 ± 1.9, E 1 ± 1.5, F 0.243 ± 2.1, G 0.366 ± 1.3, H 1.33 ± 1.9, I 0.624 ± 2.3, K 0.732 ± 1.9, L 0.904 ± 1.5, M 2.33 ± 2.3, N 1.61 ± 1.9, P 1.93 ± 2.1, Q 1.17 ± 2.7, R 1.07 ± 1.9, S 1.49 ± 2, T 1.95 ± 2.7, V 0.925 ± 1.4, W 0.201 ± 1.8, Y 1.23 ± 1.6
S170: A 1.43 ± 1.7, C 0.236 ± 0.93, E 1.51 ± 2.7, F 0.787 ± 2.5, G 0.906 ± 1.5, H 0.537 ± 0.61, I 0.852 ± 2.3, K 2 ± 1.7, L 0.822 ± 1.6, M 1.45 ± 3, N 2.8 ± 0.96, P 0.561 ± 2, Q 2.12 ± 1.8, R 0.798 ± 1.7, T 0.714 ± 0.81, V 0.727 ± 1.7, W 2.17 ± 2.4, Y 1.03 ± 1.1
A171: C 0.968 ± 2, D 1.36 ± 1.8, E 1.16 ± 1.4, F 0.745 ± 1.3, G 1.02 ± 1.8, H 0.0673 ± 2.3, I 1.09 ± 1.3, K 0.16 ± 2.5, L 0.546 ± 2, M 2.53 ± 0.83, N 0.899 ± 1.6, P 0.948 ± 1.5, Q 1.46 ± 1, R 1.46 ± 2, S 1.59 ± 2.1, T 1.99 ± 2.4, V 1.81 ± 1.9, W 0.123 ± 1.5, Y 2.38 ± 3.1
K172: A 0.388 ± 1.9, C 1.03 ± 1.7, D 0.406 ± 1.3, E 0.864 ± 2.4, F 0.61 ± 1.5, G 1.05 ± 1.8, H -0.674 ± 2.9, I 0.916 ± 1.9, L 1.5 ± 2.8, M -0.568 ± 1.1, N 1.49 ± 2, P 0.431 ± 2, Q 1 ± 1.3, R 1.22 ± 1.9, S 1.04 ± 2, T -0.338 ± 2.5, V 1.16 ± 2.3, W 0.492 ± 2.3, Y 1.43 ± 2.1
S173: A 1.04 ± 2.4, C 1.61 ± 1.9, D 0.578 ± 1.4, E 2.12 ± 2.2, F -0.212 ± 1.3, G 1.57 ± 1.9, H 0.479 ± 1.8, I 1.86 ± 2, K -0.351 ± 1.6, L 0.722 ± 1.6, M 0.451 ± 1.7, N 0.947 ± 1.8, P 1.29 ± 1.5, Q 1.7 ± 2, R 0.943 ± 1.2, T 1.07 ± 1.8, V 1.31 ± 2.1, W 0.707 ± 2.2, Y 0.581 ± 1.5
K174: A 0.349 ± 1.6, C 0.628 ± 2.1, D 1.05 ± 2, E 0.469 ± 2, F 1.74 ± 2.2, G 0.572 ± 2, H 0.216 ± 2.1, I 0.942 ± 1.8, L 0.744 ± 2, M 0.817 ± 0.63, N 0.234 ± 1.1, P -0.239 ± 1.7, Q 1.19 ± 1.6, R 1.01 ± 2.1, S 1.22 ± 1.6, T 0.405 ± 2.1, V 1.24 ± 2
